Laboratory results taken from the supplement of paper PMC3334620.
The full ranking holds about 33,000 sequences; the median of “E-score (-0.5 to 0.5)” is about -0.017, and the highest 2% start at about 0.3. This is one part of the list.

The sequences below were run against T1, Sut1 (UniProt P53032) (assay: PBM E-score (8-mer binding enrichment) (E-score (-0.5 to 0.5)); higher = stronger / more preferred TF binding; most listed sequences are background and not binding sites). Conditions: protein concentration: 200 nM; construct: GST-full length.
T1 sequence: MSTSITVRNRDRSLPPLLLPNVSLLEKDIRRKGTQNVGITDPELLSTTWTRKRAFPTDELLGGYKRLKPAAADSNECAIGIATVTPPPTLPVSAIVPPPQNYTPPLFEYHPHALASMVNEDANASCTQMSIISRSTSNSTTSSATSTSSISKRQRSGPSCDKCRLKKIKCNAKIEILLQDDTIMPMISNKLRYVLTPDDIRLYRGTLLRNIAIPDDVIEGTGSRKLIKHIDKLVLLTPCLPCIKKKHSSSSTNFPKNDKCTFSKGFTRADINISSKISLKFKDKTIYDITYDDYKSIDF
Outline: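 GST-tagged yeast TFs (full-length or DNA-binding domain) were made by PURExpress in vitro transcription/translation and applied at about 100-200 nM to universal all-10-mer Agilent arrays. The arrays were made double-stranded by primer extension, on fresh or once-stripped slides. Bound protein was detected with fluorescent anti-GST, and scans were normalised with masliner. Each ungapped eight-base word, pooled with its reverse complement, received an E-score (modified Wilcoxon-Mann-Whitney statistic) from the Universal PBM Analysis Suite.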

Row | Sequence | PBM E-score
1 | CTACCGAC | 0.0163
2 | ATTTTGAC | 0.142
3 | AAAACGGT | -0.0604
4 | GCCCAGCC | -0.184
5 | GACACTAC | 0.0616
6 | ATACTCGC | -0.0142
7 | CTAGAATA | 0.226
8 | GATCACGA | -0.142
9 | CCCTACGG | -0.239
10 | CGCGTAGC | -0.162
11 | CTAACACC | 0.0191
12 | GGCGTAGA | -0.0873
13 | CGAGCTCG | -0.0197
14 | AATTCGCA | 0.286
15 | GGGCTCAA | -0.181
16 | GGATCCAC | -0.103
17 | GATGCCGC | -0.0952
18 | CAGAGGTA | -0.0086
19 | GTCTTCAA | 0.00426
20 | AAACGGCA | -0.0663
21 | ACTAGCGA | -0.00608
22 | ATACATCA | 0.0333
23 | CAGACATA | -0.0707
24 | CCGCGGAG | 0.308
25 | CCTTCAGC | -0.182

Row | Sequence | PBM E-score
26 | TCCAAGGA | -0.0121
27 | AGTCTAGA | 0.0548
28 | ATTGAGTG | 0.0241
29 | GATCAGGC | -0.115
30 | CTTCAGTC | 0.0454
31 | TCTTCGCA | 0.0465
32 | AACGAAGG | -0.189
33 | TACTCCAA | -0.0372
34 | ACGTCAAC | 0.0596
35 | GATCGACA | -0.0654
36 | ACCCTCCC | -0.038
37 | GTCGCAGA | -0.015
38 | AATCTTGT | 0.152
39 | CGTGCTAA | 0.00998
40 | CCATTTGA | 0.0313
41 | AAATGTAG | 0.0326
42 | TACAATCA | 0.167
43 | AAGAGATA | -0.0293
44 | ATTCGTAC | 0.154
45 | GATGTTCC | -0.0774
46 | ACAGCTCC | 0.166
47 | GCTAATCA | 0.0306
48 | AGCGTTGG | -0.151
49 | GCTGCCCA | -0.297
50 | AAGATGGA | -0.116

Row | Sequence | PBM E-score
51 | ATTCGCTC | 0.027
52 | CGAAGTCA | -0.081
53 | TATTGCCA | -0.00908
54 | GCGCTGGA | -0.212
55 | GAGCACTA | -0.086
56 | ATCGCAAA | 0.0837
57 | AGCCGCAT | 0.00388
58 | ATGAAAAG | -0.0364
59 | ACATACTA | 0.15
60 | CTCTAGAC | -0.0305
61 | AACCACCA | -0.0634
62 | AACGCTTC | 0.0816
63 | ACCGCGGG | 0.115
64 | CTAAAGAA | 0.264
65 | ATATGACG | 0.179
66 | CATCTCGG | 0.234
67 | AGAGCCAG | -0.418
68 | AAATCGTC | 0.0465
69 | ACCACAGA | -0.0524
70 | CACCATTA | 0.196
71 | ACTGCTTA | 0.0551
72 | CCTTGATA | 0.0572
73 | ATTGCACC | -0.0615
74 | GGCGCTTA | -0.359
75 | ATCTAGCA | -0.008

Row | Sequence | PBM E-score
76 | ATATTAAT | 0.253
77 | AGCGCTTA | -0.0126
78 | ATGTGAAC | 0.0599
79 | ACGACAAC | 0.0842
80 | TAAATTAA | 0.283
81 | GCCTTGGA | -0.0418
82 | AACTCTCT | 0.0153
83 | ACATGTAA | 0.177
84 | GTTGACTA | -0.0477
85 | AAAGTAGG | 0.152
86 | AGAGGCTG | -0.309
87 | TAGGCCCA | -0.292
88 | CTCAAACA | 0.0968
89 | ACTGCCCG | -0.185
90 | ATATCTGC | -0.121
91 | ACGATAAA | 0.108
92 | ACGTCCCT | -0.23
93 | CCAAATCG | -0.112
94 | CCTCAGAC | -0.0278
95 | GGGGTACA | 0.0809
96 | ACAATACC | 0.0386
97 | AACAGGTG | -0.0708
98 | AACTTTGG | 0.142
99 | ATGTTGAG | 0.087
100 | ACCACATC | -0.13

Row | Sequence | PBM E-score
101 | GCAATTCC | 0.0596
102 | AGCAGTAC | -0.0557
103 | CTCTCGTA | -0.107
104 | ACCACGTC | -0.112
105 | ACCGTGAT | -0.0336
106 | ACCGGGTG | -0.178
107 | ACCTGACG | -0.271
108 | GCACCCCC | -0.282
109 | AGCAACCT | -0.157
110 | CTGACCAA | 0.0118
111 | TGGTCACA | 0.0302
112 | GGGGAACC | -0.169
113 | TCGCAACA | -0.128
114 | ATTGACCA | -0.004
115 | GATTAGCA | 0.00891
116 | CTGCCTCA | -0.242
117 | GTTAAACA | 0.282
118 | CGCTAATA | 0.0649
119 | AGCCCCGC | -0.145
120 | GATGCCCC | -0.308
121 | AAGTGGCA | -0.166
122 | AAACAAGT | 0.0919
123 | CTGGGGCC | -0.323
124 | ACTACCGG | 0.0751
125 | GCAATGGA | -0.0742

Row | Sequence | PBM E-score
126 | GCAAGAAC | 0.0471
127 | CCAGCGCG | -0.174
128 | CATCGGTC | -0.106
129 | TCAATTGA | 0.214
130 | GCGCCCGC | -0.405
131 | GCGATCCC | -0.182
132 | AACTGAAA | 0.221
133 | CTCTCGCA | -0.173
134 | CCCAAGAC | -0.125
135 | CCTGACTC | -0.13
136 | CATCTTCA | -0.18
137 | CAGAGATG | -0.149
138 | AGACCTTC | -0.153
139 | GCCCATCA | -0.314
140 | GTATCAAC | 0.0399
141 | CAGGATTA | -0.172
142 | ACGACGAT | 0.189
143 | CGAGCACC | -0.161
144 | CTTGGGCC | -0.23
145 | AAATATGG | -0.0603
146 | ATCAAGGG | -0.102
147 | ACTGAGAT | -0.0119
148 | AGGGAACA | -0.222
149 | AACTAAAG | 0.195
150 | TACGCATA | 0.129

Row | Sequence | PBM E-score
151 | TATCGAAA | 0.0439
152 | CTTGTCGC | -0.139
153 | AAACATTA | 0.24
154 | CCCACAGG | -0.249
155 | CCGCTTAG | -0.039
156 | TCTAACCA | 0.0509
157 | CGGCCGGA | 0.275
158 | CCTACAGC | -0.00274
159 | GCTCGCAC | 0.0343
160 | AAGCACGG | -0.00889
161 | TGAGGACA | -0.154
162 | AAGTCAAA | 0.128
163 | CCCTCACG | -0.339
164 | AATCGTGG | -0.0317
165 | AATTTTTG | 0.262
166 | ATCCAGTA | 0.00221
167 | AGACGACG | -0.206
168 | GGGTTGAC | -0.147
169 | AAAAGGAG | 0.0944
170 | GCATGCCC | -0.048
171 | CCCTTGTA | -0.119
172 | CAGAGATC | -0.0765
